# Experimental data published in PubChem BioAssay AID463173 (ICCB-Longwood Screening Facility, Harvard Medical School, 2010).
# In all, about 52,000 compounds went through this assay and about 1,700 (3.3%) were called active. Cut-off read from the data, not from the text of the source: active = survival mostly below about 52% (no sharp cut-off); inactive = mostly above about 56%. Some of the results follow.
# Tested on: Wild type
# Assay: S. aureus survival, RN4220 and DeltatarO strains – OD600, teichoic acid synthesis inhibitors, primary screen (AID 463173)
# Details: S. aureus RN4220 wild type/DeltatarO growth, OD600, 18 h, stronger effect = lower value, screened at 18.75 µg/mL (by protocol)
row,SMILES,survival
1,O=C(CN(Cc1cccs1)C(=O)c1csnn1)NC1CCCC1,inactive: 106%
2,Cc1cccnc1NC(=O)c1c(O)c2cc(F)cc3c2n(c1=O)C(C)CC3 (stereo not drawn),inactive: 114%
3,COc1ccc(C2=C(Nc3ccc(C)c(C)c3)c3ccccc3C2=O)cc1,inactive: 90%
4,COc1ccccc1N1CCN(C(=O)c2cc(-c3ccccc3O)on2)CC1,inactive: 66%
5,N#Cc1cccc(NC(=O)c2cc3c(s2)-c2ccc(Cl)cc2SC3)c1,inactive: 97%
6,COc1ccc(CCNC(=O)c2ccc3c(c2)N(Cc2ccc(F)cc2)CCS3)cc1OC,inactive: 141%
7,Cc1nc(-c2ccc(S(=O)(=O)Nc3ccc(C)c(N(C)C)c3)cc2)co1,inactive: 68%
8,CCC(=O)Nc1nc2cc(Cl)c(C)cc2s1,inactive: 110%
9,CCc1nn(CC(=O)NCc2ccccc2Cl)c(=O)c2cccn12,inactive: 86%
10,CCCN1C(=O)c2ccccc2NC1c1ccc(C)cc1 (stereo not drawn),inactive: 112%
11,O=C(COc1ccccc1[N+](=O)[O-])Nc1ccc(-c2nc3ccccc3s2)cc1,inactive: 94%
12,Cc1cc(C)cc(NC(=O)c2cccc3c2C(=O)N(C2CCCCC2)C3)c1,inactive: 42%
13,COc1ccc(S(=O)(=O)c2cc(NS(=O)(=O)c3ccc(Cl)cc3)c(C)c(C)c2O)cc1,inactive: 65%
14,COc1ccc(NC(=O)c2cnc[nH]2)cc1,inactive: 150%
15,Cc1nc(SCC(=O)Nc2ccccc2F)[nH]c(=O)c1Cc1ccccc1,inactive: 101%
16,O=S(=O)(c1ccccc1)c1nc(-c2cccs2)oc1SCc1ccc(F)cc1,inactive: 61%
17,Cc1ccc(NC(c2ccc(Cl)cc2)c2nnc(-c3cccc(F)c3)o2)cc1C (stereo not drawn),inactive: 95%
18,COC(=O)c1ccc(NC(=O)CN2C(=O)c3cccc4cccc2c34)cc1,inactive: 85%
19,COc1ccc(-c2cn3nc(SCC(=O)Nc4ccc(C)c(Cl)c4)ccc3n2)cc1,inactive: 67%
20,Cc1[nH]c2ccc(-c3nnc(SCC(=O)N4CCc5ccccc54)o3)cc2c1C,inactive: 95%

row,SMILES,survival
1,COC(=O)CCNC(=O)N1CCN(c2nnc(C)c3c(C)n(-c4ccc(Cl)cc4)nc23)CC1,inactive: 80%
2,COc1ccc(OC)c(CCNC(=O)c2c3c(nc4ccccc24)C(=O)N(C2CCCCC2)C3)c1,inactive: 65%
3,COc1ccc(-c2noc(C3CC(=O)N(c4ccccc4)C3)n2)c(OC)c1 (stereo not drawn),inactive: 78%
4,CCN(CCCNC(=O)c1cc(Nc2ccccc2OC)nc2ccccc12)c1cccc(C)c1,inactive: 99%
5,O=S(=O)(NCC(Nc1ccc(Cl)cc1)c1ccccc1)c1ccccc1 (stereo not drawn),inactive: 56%
6,COc1ccccc1-c1nnn(CC#N)n1,inactive: 102%
7,Cc1cc(C)c(NC(=O)COc2ccc3c(C)cc(=O)oc3c2)c(C)c1,inactive: 87%
8,O=C(CSc1nc2c([nH]c3ccccc32)c(=O)n1-c1ccc(Cl)cc1)N1CCCC1,inactive: 75%
9,O=S(=O)(NCC1OCCc2ccccc21)c1ccccc1 (stereo not drawn),inactive: 113%
10,CCOC(=O)Cn1c(=O)oc2cc(S(=O)(=O)N3CCN(c4ccc(C(C)=O)cc4)CC3)ccc21,inactive: 81%
11,CCOc1ccc(S(=O)(=O)c2cn(Cc3cc(C)ccc3C)c3ccc(OCC)cc3c2=O)cc1,inactive: 80%
12,COc1cccc(Nc2nc3cc(Cl)c(Cl)cc3nc2-n2nc(C)cc2C)c1,inactive: 81%
13,COc1ccc(NC(=O)Cn2nc(C)c3nn(-c4ccc(Cl)cc4)c(C)c3c2=O)cc1,inactive: 80%
14,CCOc1ccc(NC(=O)c2cc(S(=O)(=O)N3CCOCC3)ccc2F)cc1,inactive: 71%
15,CCCOC(=O)c1ccc(Cn2nnc3sc4c(c3c2=O)CCC(C)C4)cc1 (stereo not drawn),inactive: 77%
16,COc1ccccc1CNC(=O)c1cnc(N2CCCC2)nc1C,inactive: 126%
17,CC1CCN(c2oc(/C=C/c3ccc(F)cc3)nc2C#N)CC1,inactive: 81%
18,CCN(CC)c1ccc2c(c1)OC(N)=C(C#N)C2c1cccc(F)c1 (stereo not drawn),inactive: 62%
19,O=C(Nc1ccccc1)C1CCN(S(=O)(=O)c2ccc3[nH]c4c(c3c2)CCCCC4)CC1,inactive: 72%
20,COc1ccccc1NC(=O)C1=C(C)Nc2nc(SCc3ccccc3)nn2C1c1cccnc1 (stereo not drawn),inactive: 81%

row,SMILES,survival
1,COc1ccc(CCNC(=O)CCn2c(=O)c3ccccc3n(CC(=O)Nc3ccc(C)cc3C)c2=O)cc1OC,inactive: 141%
2,CCc1c(C)sc2c1CCN(C(=O)Nc1ccc(F)c(Cl)c1)C2c1ccc(F)cc1 (stereo not drawn),inactive: 64%
3,CCOc1ccc(-c2nc(Cn3c(=O)cc(C)c4c(C)nn(-c5ccc(C)cc5)c43)c(C)o2)cc1,inactive: 87%
4,Cn1c(=O)c2c(c3ccccc31)OC(=O)CC2c1cccc(F)c1 (stereo not drawn),inactive: 76%
5,O=C(Nc1ccc(Cl)cc1)N1CCN(c2ccc3nnc(-c4ccccc4)n3n2)CC1,inactive: 82%
6,O=c1[nH]c2cc3c(cc2cc1C(c1nnnn1C1CCCC1)N1CC=C(c2ccc(F)cc2)CC1)OCO3 (stereo not drawn),inactive: 105%
7,CCOc1ccc(NC(=O)c2cc3c(=O)n(Cc4cccs4)ccc3nc2C)cc1,inactive: 73%
8,CCCCC1(O)CC(C)(C)N([O])C(C)(C)C1,inactive: 106%
9,COc1ccccc1N(CC(=O)NCCSCc1cccc(Cl)c1)S(C)(=O)=O,inactive: 76%
10,O=C(C1CCC(Cn2c(=O)c3sccc3n(Cc3ccccc3F)c2=O)CC1)N1CCCCC1 (stereo not drawn),inactive: 129%
11,O=C(NCc1ccco1)C1CCC(N2C(=O)c3ccccc3C2=O)CC1 (stereo not drawn),inactive: 104%
12,Cc1nonc1C(=O)N/N=C/c1ccccc1,inactive: 121%
13,CCCCNC(=O)C1CCN(S(=O)(=O)c2ccc3c(ccn3CC)c2)CC1,inactive: 124%
14,CC(C)NC(=O)C1CCN(C(=O)c2cc3sccc3n2Cc2ccc(Cl)cc2)CC1,inactive: 81%
15,Cc1cc(C)c(NC(=O)c2ncoc2-c2ccco2)c(C)c1,inactive: 112%
16,O=S(=O)(NCCc1csc2nc(-c3ccccc3)nn12)c1ccc(Cl)s1,inactive: 82%
17,COc1ccc2c(CNC3CCCCCC3)c(C(=O)O)n(Cc3cccc(F)c3)c2c1,inactive: 82%
18,Cc1cc(C)cc(NC(=O)CSc2nnc(-c3cc4occc4n3C)n2-c2ccccc2C)c1,inactive: 100%
